{"source": "the supplement of paper PMC8728848", "binders": {"B1": {"name": "SP16664B-bot-474-25-474 (Bacteroides ovatus) (protein)", "chain": "CEEDIEIGNKIDESSYLASTQLSGLLLDENTNKNSSVIELRNNEYSTNVVFRLSKLPQKGVDVQIAVEESYAAIYNTIHETDFEVFPAANVKIANNGTFVLAPDDKVTPSVKVTLTAFDGMEEDKTYIVPLTVTSSTEGVTFTETSKHMVLLVQDYRNKPNTNKGEDAVQTVLYFEVNDTNPLNALEFLTESGKYFFDHIVLFAANINWDPEKQRVYLANNENVQFLLDNNDKYLQPLRKAGMKIIISILGNHDEAGVAQLSDMGAREFARELAAYCRAYNLDGVAFDDEYSNSPDLSNPWLASPSAYAGSRLMYECKAVMPEKIVSLYNLGNMYSSSLQVIDGIEPGQYCDYAVADYGGAAGPGTGMTLKQCAGMSIELRRGSGNSSESTARSRKEAGYGYYMFFALDPSLYGSQVYRCQSVCKGLYDETLVYPSYYYKKNSTEREAIN"}}, "assay_in_all_cases": "glycan array binding signal (z-score within array); higher = stronger binding", "details_in_all_cases": "glycan notation: IUPAC condensed, linker removed", "key": {"[1]": {"molecular_target": "Gal(b1-3)GlcNAc(b1-2)Man(a1-3)[Gal(b1-3)GlcNAc(b1-2)Man(a1-6)]Man(b1-4)GlcNAc(b1-4)GlcNAc", "summary_of_the_method": "(§1)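 Columns mapping to the same glycan were averaged after glycan names were converted to IUPAC-condensed notation. The data come from 3228 arrays in the Consortium for Functional Glycomics database, limited to those with an available protein sequence. Binding is reported as a within-array Z-score averaged across arrays of one protein sequence and across linkers.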"}, "[2]": {"molecular_target": "Gal(b1-3)GlcNAc(b1-2)Man(a1-3)[Gal(b1-3)GlcNAc(b1-2)Man(a1-6)]Man(b1-4)GlcNAc(b1-4)[Fuc(a1-6)]GlcNAc", "summary_of_the_method": "as §1"}, "[3]": {"molecular_target": "Gal(b1-3)GlcNAc(b1-2)Man(a1-3)[GlcNAc(b1-4)][Gal(b1-3)GlcNAc(b1-2)Man(a1-6)]Man(b1-4)GlcNAc(b1-4)GlcNAc", "summary_of_the_method": "as §1"}, "[4]": {"molecular_target": "Gal(b1-3)GlcNAc(b1-2)[Gal(b1-3)GlcNAc(b1-6)]Man(a1-6)[Gal(b1-3)GlcNAc(b1-2)Man(a1-3)]Man(b1-4)GlcNAc(b1-4)GlcNAc", "summary_of_the_method": "as §1"}, "[5]": {"molecular_target": "Gal(b1-3)GlcNAc(b1-3)Gal(b1-3)GlcNAc", "summary_of_the_method": "as §1"}, "[6]": {"molecular_target": "Gal(b1-3)GlcNAc(b1-3)Gal(b1-4)Glc", "summary_of_the_method": "as §1"}, "[7]": {"molecular_target": "Gal(b1-3)GlcNAc(b1-3)Gal(b1-4)GlcNAc", "summary_of_the_method": "as §1"}, "[8]": {"molecular_target": "Gal(b1-3)GlcNAc(b1-3)Gal(b1-4)GlcNAc(b1-2)Man(a1-3)[Gal(b1-3)GlcNAc(b1-3)Gal(b1-4)GlcNAc(b1-2)Man(a1-6)]Man(b1-4)GlcNAc(b1-4)GlcNAc", "summary_of_the_method": "as §1"}, "[9]": {"molecular_target": "Gal(b1-3)GlcNAc(b1-3)Gal(b1-4)GlcNAc(b1-2)[Gal(b1-3)GlcNAc(b1-3)Gal(b1-4)GlcNAc(b1-6)]Man(a1-6)[Gal(b1-3)GlcNAc(b1-3)Gal(b1-4)GlcNAc(b1-2)Man(a1-3)]Man(b1-4)GlcNAc(b1-4)[Fuc(a1-6)]GlcNAc", "summary_of_the_method": "as §1"}, "[10]": {"molecular_target": "Gal(b1-3)GlcNAc(b1-3)Gal(b1-4)GlcNAc(b1-3)Gal(b1-4)GlcNAc(b1-2)[Gal(b1-3)GlcNAc(b1-3)Gal(b1-4)GlcNAc(b1-3)Gal(b1-4)GlcNAc(b1-6)]Man(a1-6)[Gal(b1-3)GlcNAc(b1-3)Gal(b1-4)GlcNAc(b1-3)Gal(b1-4)GlcNAc(b1-2)Man(a1-3)]Man(b1-4)GlcNAc(b1-4)[Fuc(a1-6)]GlcNAc", "summary_of_the_method": "as §1"}, "[11]": {"molecular_target": "Gal(b1-3)GlcNAc(b1-3)Gal(b1-4)GlcNAc(b1-6)[Gal(b1-3)GlcNAc(b1-3)]Gal(b1-4)Glc", "summary_of_the_method": "as §1"}, "[12]": {"molecular_target": "Gal(b1-3)GlcNAc(b1-3)Gal(b1-4)[Fuc(a1-3)]GlcNAc", "summary_of_the_method": "as §1"}, "[13]": {"molecular_target": "Gal(b1-3)GlcNAc(b1-3)Gal(b1-4)[Fuc(a1-3)]GlcNAc(b1-6)[Gal(b1-3)GlcNAc(b1-3)]Gal(b1-4)Glc", "summary_of_the_method": "as §1"}, "[14]": {"molecular_target": "Gal(b1-3)GlcNAc(b1-3)GalNAc", "summary_of_the_method": "as §1"}, "[15]": {"molecular_target": "Gal(b1-3)GlcNAc(b1-6)Gal(b1-4)GlcNAc", "summary_of_the_method": "as §1"}, "[16]": {"molecular_target": "Gal(b1-3)GlcNAc(b1-6)GalNAc", "summary_of_the_method": "as §1"}, "[17]": {"molecular_target": "Gal(b1-3)GlcNAc(b1-6)[Gal(b1-3)]GalNAc", "summary_of_the_method": "as §1"}, "Gal(b1-3)GlcNAc6S": {"molecular_target": "Gal(b1-3)GlcNAc6S", "summary_of_the_method": "as §1"}, "[18]": {"molecular_target": "Gal(b1-3)[Fuc(a1-4)]GlcNAc", "summary_of_the_method": "as §1"}, "[19]": {"molecular_target": "Gal(b1-3)[Fuc(a1-4)]GlcNAc(b1-2)Man", "summary_of_the_method": "as §1"}, "[20]": {"molecular_target": "Gal(b1-3)[Fuc(a1-4)]GlcNAc(b1-2)Man(a1-3)[Gal(b1-3)[Fuc(a1-4)]GlcNAc(b1-2)Man(a1-6)]Man(b1-4)GlcNAc(b1-4)[Fuc(a1-6)]GlcNAc", "summary_of_the_method": "as §1"}, "[21]": {"molecular_target": "Gal(b1-3)[Fuc(a1-4)]GlcNAc(b1-3)Gal(b1-3)[Fuc(a1-4)]GlcNAc", "summary_of_the_method": "as §1"}, "[22]": {"molecular_target": "Gal(b1-3)[Fuc(a1-4)]GlcNAc(b1-3)Gal(b1-4)[Fuc(a1-3)]GlcNAc", "summary_of_the_method": "as §1"}, "[23]": {"molecular_target": "Gal(b1-3)[Fuc(a1-4)]GlcNAc(b1-6)GalNAc", "summary_of_the_method": "as §1"}, "[24]": {"molecular_target": "Gal(b1-3)[GlcNAc(b1-6)]GalNAc", "summary_of_the_method": "as §1"}, "[25]": {"molecular_target": "Gal(b1-3)[Neu5Ac(a2-6)]GalNAc", "summary_of_the_method": "as §1"}, "[26]": {"molecular_target": "Gal(b1-3)[Neu5Ac(a2-6)]GlcNAc(b1-4)Gal(b1-4)Glc", "summary_of_the_method": "as §1"}, "[27]": {"molecular_target": "Gal(b1-3)[Neu5Ac(b2-6)]GalNAc", "summary_of_the_method": "as §1"}, "Gal(b1-4)Gal": {"molecular_target": "Gal(b1-4)Gal", "summary_of_the_method": "as §1"}, "[28]": {"molecular_target": "Gal(b1-4)GalNAc(a1-3)[Fuc(a1-2)]Gal(b1-4)GlcNAc", "summary_of_the_method": "as §1"}, "[29]": {"molecular_target": "Gal(b1-4)GalNAc(b1-3)[Fuc(a1-2)]Gal(b1-4)GlcNAc", "summary_of_the_method": "as §1"}, "Gal(b1-4)Glc": {"molecular_target": "Gal(b1-4)Glc", "summary_of_the_method": "as §1"}, "Gal(b1-4)Glc6S": {"molecular_target": "Gal(b1-4)Glc6S", "summary_of_the_method": "as §1"}, "Gal(b1-4)GlcNAc": {"molecular_target": "Gal(b1-4)GlcNAc", "summary_of_the_method": "as §1"}, "[30]": {"molecular_target": "Gal(b1-4)GlcNAc(a1-6)Gal(b1-4)GlcNAc", "summary_of_the_method": "as §1"}, "Gal(b1-4)GlcNAc(b1-2)Man": {"molecular_target": "Gal(b1-4)GlcNAc(b1-2)Man", "summary_of_the_method": "as §1"}, "[31]": {"molecular_target": "Gal(b1-4)GlcNAc(b1-2)Man(a1-3)Man(b1-4)GlcNAc(b1-4)GlcNAc", "summary_of_the_method": "as §1"}}, "note": "The other results are listed elsewhere or left out."}
{"binder": "B1", "values": [{"measurement": "glycan array binding signal (z-score)", "setting": "[1]", "value": 0.238}, {"measurement": "glycan array binding signal (z-score)", "setting": "[2]", "value": 0.482}, {"measurement": "glycan array binding signal (z-score)", "setting": "[3]", "value": 0.138}, {"measurement": "glycan array binding signal (z-score)", "setting": "[4]", "value": 0.525}, {"measurement": "glycan array binding signal (z-score)", "setting": "[5]", "value": -0.39}, {"measurement": "glycan array binding signal (z-score)", "setting": "[6]", "value": -0.23}, {"measurement": "glycan array binding signal (z-score)", "setting": "[7]", "value": -0.418}, {"measurement": "glycan array binding signal (z-score)", "setting": "[8]", "value": -0.246}, {"measurement": "glycan array binding signal (z-score)", "setting": "[9]", "value": 0.052}, {"measurement": "glycan array binding signal (z-score)", "setting": "[10]", "value": 0.528}, {"measurement": "glycan array binding signal (z-score)", "setting": "[11]", "value": 0.146}, {"measurement": "glycan array binding signal (z-score)", "setting": "[12]", "value": -0.407}, {"measurement": "glycan array binding signal (z-score)", "setting": "[13]", "value": -0.257}, {"measurement": "glycan array binding signal (z-score)", "setting": "[14]", "value": -0.248}, {"measurement": "glycan array binding signal (z-score)", "setting": "[15]", "value": -0.428}, {"measurement": "glycan array binding signal (z-score)", "setting": "[16]", "value": -0.355}, {"measurement": "glycan array binding signal (z-score)", "setting": "[17]", "value": -0.087}, {"measurement": "glycan array binding signal (z-score)", "setting": "Gal(b1-3)GlcNAc6S", "value": 0.202}, {"measurement": "glycan array binding signal (z-score)", "setting": "[18]", "value": -0.27}, {"measurement": "glycan array binding signal (z-score)", "setting": "[19]", "value": -0.44}, {"measurement": "glycan array binding signal (z-score)", "setting": "[20]", "value": 0.47}, {"measurement": "glycan array binding signal (z-score)", "setting": "[21]", "value": -0.485}, {"measurement": "glycan array binding signal (z-score)", "setting": "[22]", "value": -0.238}, {"measurement": "glycan array binding signal (z-score)", "setting": "[23]", "value": 0.134}, {"measurement": "glycan array binding signal (z-score)", "setting": "[24]", "value": -0.351}, {"measurement": "glycan array binding signal (z-score)", "setting": "[25]", "value": -0.588}, {"measurement": "glycan array binding signal (z-score)", "setting": "[26]", "value": -0.513}, {"measurement": "glycan array binding signal (z-score)", "setting": "[27]", "value": -0.124}, {"measurement": "glycan array binding signal (z-score)", "setting": "Gal(b1-4)Gal", "value": -0.186}, {"measurement": "glycan array binding signal (z-score)", "setting": "[28]", "value": -0.481}, {"measurement": "glycan array binding signal (z-score)", "setting": "[29]", "value": -0.546}, {"measurement": "glycan array binding signal (z-score)", "setting": "Gal(b1-4)Glc", "value": -0.328}, {"measurement": "glycan array binding signal (z-score)", "setting": "Gal(b1-4)Glc6S", "value": 0.2}, {"measurement": "glycan array binding signal (z-score)", "setting": "Gal(b1-4)GlcNAc", "value": -0.243}, {"measurement": "glycan array binding signal (z-score)", "setting": "[30]", "value": -0.245}, {"measurement": "glycan array binding signal (z-score)", "setting": "Gal(b1-4)GlcNAc(b1-2)Man", "value": -0.192}, {"measurement": "glycan array binding signal (z-score)", "setting": "[31]", "value": 0.323}]}
